# Laboratory results reported in the supplement of paper PMC11417369.
# ± gives the standard deviation of the averaged measurements. This is one part of the list.
# Tested on: PfAP2-LT AP2 domain (GST-tagged)
# Assay: gcPBM binding intensity (ln(normalized median fluorescence intensity)); higher = stronger DNA binding
# Procedure, shortened: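 Binding intensity is the highest Masliner-normalised natural-log median intensity over replicate spots in either probe orientation. To obtain it, GST-tagged P. falciparum DNA-binding domains made in E. coli were incubated for 1 h on an Agilent 4 × 180k array of primer-extended double-stranded 36-bp intergenic genomic probes plus negative controls. Detection used Alexa488 anti-GST antibody with scanning at 488 nm.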
row,Sequence,gcPBM binding intensity (ln)
1,CATAAATACAAATATACACACATATTTATATTTATA [CACACA_site7277],8.93 ± 0.42
2,ATATATAGATGTGAATTATTTATATTATCTATTCTT [CACACA_negctrl_site518],8.64 ± 0.47
3,ATTATACTTTCCATTCGTACATATATAAATAAATAA [XGTACX_site6245],8.45 ± 0.36
4,TATTTAAAATAATAACAAAATTAACATAAATATATA [GTGCAC_negctrl_site472],8.38 ± 0.49
5,AACAATAAATTATTATGTACACATATATTATATATA [XGTACX_site4629],8.67 ± 0.38
6,ATATTTTAAAATAATACACACAAAATGATTCTTAAT [CACACA_site2930],8.87 ± 0.45
7,ATAAGTATTACTAGTACACACAAGTTGTTAATCCTT [CACACA_site3324],9.15 ± 0.45
8,TATATTATATAATTTTAACACACAAGAATATAAACT [CACACA_site8378],8.79 ± 0.42
9,ATTTATAAAATATAATTACATTTTTAAATAATAAAA [GTGCAC_negctrl_site43],8.11 ± 0.52
10,TTACGATTTAAAATGGGTACATATATATGAAAAAAA [XGTACX_site545],8.49 ± 0.43
11,CTTATGTGCATACCTACACACTTACCTATATTTATA [CACACA_site7411],9.04 ± 0.45
12,TTTTTTTTGTATTTTTCACACACACCGAAGTAAACA [CACACA_site8575],9.29 ± 0.42
13,TAAAAGGATGCATATACACACATATAGATTTATATA [CACACA_site7336],9.07 ± 0.51
14,ATATAATCTGAGTGCACACAAATAAATAAACATACA [CACACA_site422],9.34 ± 0.47
15,TTTTTCCTTATTAATACACACATTCACCTTTTAAAT [CACACA_site479],9.09 ± 0.38
16,AGTTGCATACATTGAAGTACAGAACATTTATATATA [XGTACX_site240],8.81 ± 0.4
17,TTAAATTCGTCATTTTAAAATAATACAAAAGTTCAA [CACACA_negctrl_site19],8.3 ± 0.39
18,GTATTTATGTGTTTGGTGCAAGGGAGAATTTTTTTT,8.93 ± 0.21
19,TCAAAGTAAAACAGGACATGCACAGAACATCCTGCC [TGCATGCA_site2],8.88 ± 0.29
20,AAAAAAAAAACATACACACACATATAGATTTATATG [CACACA_site6847],9.31 ± 0.35
21,TACACAAAGTTACATACACACTAATATTTACACCAT [CACACA_site6602],9.06 ± 0.38
22,TAAAGAAAAATATAAAGTACAAAAATAAAAAAAATA [XGTACX_site8226],8.78 ± 0.59
23,CATAATTATGCAATTGCACACAACTATCATTTTTTT [CACACA_site2997],9.19 ± 0.46

row,Sequence,gcPBM binding intensity (ln)
1,TCATTCATATGTTACACACACACACCCACATAAAAA [CACACA_site3245],9.8 ± 0.23
2,AAACCAAGGCACAATAATTAAATAAATAAAATCATG [GTGCAC_negctrl_site574],8.78 ± 0.52
3,ATTTATATATATATAGGTACACATATTTATATATAA [XGTACX_site8487],8.63 ± 0.3
4,ATATAATTTTTCAAGTGTACTTTTTTTTTTTAACAT [XGTACX_site3050],8.7 ± 0.44
5,AAAAAAAAAAAAAAAAAAAAAAAAAAATACATATGT [XGTACX_negctrl_site95],8.85 ± 0.27
6,GATTATATATGAAAATGTACAAATATATATATATAT [XGTACX_site5963],9.08 ± 0.47
7,TTTTTGTATGCTTCCCGACTACATTATGCCATAAAT [CACACA_negctrl_site136],9.02 ± 0.52
8,TATATATAAAAAACATGTACACAAATTTACATACAT [XGTACX_site4777],8.84 ± 0.37
9,TCACTAAACCATTAGAGTACTTGACATATAATGAGC [XGTACX_site3272],8.72 ± 0.26
10,AAGAGTTAAAAAAATACACACATATATATTTTTTTA [CACACA_site1980],8.76 ± 0.44
11,ATATATCTATATGTGTGTACATATAAGTATTTATAT [XGTACX_site5333],9.01 ± 0.37
12,ACATATAAACTGTATACACACAAATATTGCATATAT [CACACA_site6804],9.15 ± 0.29
13,ATATATATAAATATATGTACTAATATATACATATAT [XGTACX_site2289],8.73 ± 0.47
14,TACATTCTAAATATTACACACTTTATAAAATAATAA [CACACA_site4069],8.45 ± 0.38
15,AGAAAAGAGAAATGGGCACACACACCCATATTATAT [CACACA_site8433],9.32 ± 0.39
16,AAGGTGGGAAAAAATAGTACACAACAAAAATGTATG [XGTACX_site8741],8.87 ± 0.58
17,CACACAACTATCAAGGTGCTAAAATGAAATAATATA [GTGCAC_site9871],8.85 ± 0.48
18,AAAAAAATAAAAAATATATAAATAATTAATACATGT [GTGCAC_negctrl_site633],8.62 ± 0.59
19,AATATAAATAAAAACACACACACACGGATATTTATA [CACACA_site7134],10 ± 0.25
20,ATATTATATCTAATCGTGCACAACTGTACATTTGTC,9.17 ± 0.4
21,CCCATGTAATATTAAACACACACTCATATAACACAA [CACACA_site7906],9.36 ± 0.26
22,TTGTATCATATATTATGTACATATTTATTTATTATC [XGTACX_site7723],8.87 ± 0.41
23,CAAAATATTTAAAAAAGTACTTAAAATAAATTCAAA [XGTACX_site6866],8.47 ± 0.5

row,Sequence,gcPBM binding intensity (ln)
1,ATATTTAAATATATTTATATATATAAAAAAAAATAT [GTGCAC_negctrl_site312],8.51 ± 0.45
2,GAATATTCACATACTTGTACATATATATATATATAT [XGTACX_site7302],9.55 ± 0.028
3,AGGTAAAAATGGTAAGTGCATTAATGATAAAAAATG,9.06 ± 0.62
4,TAATAATAGTACTGACATCGAAATATTATTAAAAAT [CACACA_negctrl_site255],8.61 ± 0.49
5,TATAAGAATAAAAAGGGTACATAAAATAATAATATA [XGTACX_site2355],8.81 ± 0.5
6,GTTTACATAGATAACTGTACGCAATGATATTAGACA [XGTACX_site1320],8.77 ± 0.37
7,CAAAAAAAATAAAACACACACACAAAAAAATAAAAA [CACACA_site466],9.84 ± 0.31
8,GTAAATATATAAACATGTACATATATAAATATATAA [XGTACX_site7262],8.95 ± 0.4
9,TGGCAAAATAGGCACACACACATATACCTATAGATT [CACACA_site7168],9.66 ± 0.5
10,GATAATTTTTTTCTCACACACAAATATTTTAATCAT [CACACA_site3666],9.01 ± 0.49
11,AAATATATTATATCATATATTAAAGCATATATTAAA [CACACA_negctrl_site1624],8.43 ± 0.42
12,TTCTTTTTATTTATATTTTCCCCTCTCTATAGCTAT [XGTACX_negctrl_site102],8.71 ± 0.7
13,CAAAATAATAATAAAAGTACTAACATATTTATGAAA [XGTACX_site6078],8.68 ± 0.52
14,ATAATTCAAAAAAACACACAAATTACAAAATAAACT [CACACA_site6264],9.02 ± 0.36
15,AAAATATATACACAAACATGCATATAATAAATAAAT [TGCATGCA_site711],8.99 ± 0.35
16,ATATTTCTGTGTGGATGTACATTATTAGCAGGCTTT [XGTACX_site6496],8.97 ± 0.41
17,CATTATGTCGTAAATACACACATACCTATACATACA [CACACA_site6763],9.11 ± 0.32
18,TATACACATATATAAACACACAAAAAAAAAAAAAAA [CACACA_site7041],8.88 ± 0.49
19,CCATAAGATATATGTAGTACATATTATATATATATA [XGTACX_site2104],8.96 ± 0.33
20,AATATATAGCTAAAAACACACAAATATATACGCATA [CACACA_site3608],9.12 ± 0.39
21,CTTAAAAAAACCTTAACACACATAAACTCTAATTTA [CACACA_site7430],8.66 ± 0.4
22,GTTTACATTAAAAATTGTACTCTGTATGAATAATAT [XGTACX_site80],8.6 ± 0.49
23,ATTTCATTTTATAAGTGTACAATAAAAAAAAAAAAA [XGTACX_site8677],8.36 ± 0.42

row,Sequence,gcPBM binding intensity (ln)
1,AAATTTGATATAAAAAGTACAAAATGTTCCTCAGCT [XGTACX_site809],8.78 ± 0.28
2,GATGATACAAAGTAATGTACATAAATACACATATTG [XGTACX_site3177],9.03 ± 0.44
3,ATATAAACAGAAAATAGTACTTTATATTGAAAAAAA [XGTACX_site7183],8.53 ± 0.62
4,CTCTTCTATATATAAGCATGCATTCATAATAATTTA [TGCATGCA_site679],8.62 ± 0.4
5,TAGATACTTGTCATGGGTACATATCGTACCTTTTGG [XGTACX_site6781],8.78 ± 0.4
6,TTTATATGATATATTACACACAAAAAAAAAAAAAAA [CACACA_site3549],8.72 ± 0.38
7,GCTTAATGTCATATATCACACATGAAAATATATATA [CACACA_site5089],8.81 ± 0.38
8,TAAATATATTAATACACACACGATATGTACAAAAAA [CACACA_site540],9.26 ± 0.38
9,TTTTGATTTCCTATTGCACACTTTTTTTAAGTTTAT [CACACA_site1056],8.98 ± 0.47
10,TGCATATACGCAAGCACACATATATATATATATATA [CACACA_site1069],10.1 ± 0.4
11,TATATATATATATAATGTACATATAATATATTTATT [XGTACX_site7892],8.78 ± 0.27
12,ACAGCTACCAGATACTGTACTTTTCTCCAGACTGCA [XGTACX_site2541],8.85 ± 0.51
13,AATTTATAATTATAGAGTACATATTTTTAATATATA [XGTACX_site2566],8.31 ± 0.48
14,GTAATAATTTTTTGTAGTACACAAAAATTCATATTT [XGTACX_site2699],8.64 ± 0.39
15,ATATACACTTAATTTTTTATAAAAAAAAATTTATAT [CACACA_negctrl_site498],8.38 ± 0.45
16,ATATACATAATCTTCTTGCACTTTTTTTTTTTTTTT [GTGCAC_site9410],8.79 ± 0.52
17,TATATTTTGTTCTTTCCACACACAAATACATATATT [CACACA_site9348],9.25 ± 0.45
18,ATGTGATATAAGTACACACACATATGTATTTATAAC [CACACA_site6942],9.57 ± 0.35
19,ATTAATTTTAATAAAGGTACACGTAGTTTTTTATTA [XGTACX_site7868],8.34 ± 0.32
20,TTAAAATTAAAAATGCGTACACATATACATAAAAAA [XGTACX_site1915],8.78 ± 0.52
